# Reference: the supplement of paper PMC11417369
# ± gives the standard deviation of the averaged measurements. Some of the results follow.
# Test system: PfAP2-I AP2 domain 3 (GST-tagged)
# Experiment: gcPBM binding intensity (ln(normalized median fluorescence intensity)); higher = stronger DNA binding
# How it was run: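 GST-fused DNA-binding domains of P. falciparum, expressed in E. coli, were applied at about 25 μg on average for 1 h to an Agilent 4 × 180k array of primer-extended double-stranded 36-bp intergenic genomic probes and negative controls. Binding intensity is the highest Masliner-normalised natural-log median intensity across replicate spots of either probe orientation, measured with Alexa488 anti-GST antibody and a 488 nm scan.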
row,Sequence,gcPBM binding intensity (ln)
1,AATATATTAAATATTACACACATACATTTAGTGGAA [CACACA_site8609],7.58 ± 0.5
2,TACTAAGAAAAGAACTGTACATAGAATATACCCAAG [XGTACX_site4757],7.7 ± 0.6
3,AATATCAAAAAAAAAAAAAAAAAAAAAAAAAAAAAA [CACACA_negctrl_site288],8.32 ± 0.96
4,ATGATAATTATTAAGGGTACATAAAAATATATCTAT [XGTACX_site8969],7.78 ± 0.48
5,ATTATTTAACATGTGGACACAAAAATTTAAGGGTTC [CACACA_negctrl_site1269],8.11 ± 0.48
6,TATAATTATTTTTTCACACATATGTATTTATATATA [CACACA_site4205],7.99 ± 0.43
7,AGATATATATATAGGTGTACTGGAATGAAATTGTTT [XGTACX_site8200],8.06 ± 0.64
8,ATACATATACACATTTGTACATATTCCTTTTTATCG [XGTACX_site1731],8.13 ± 0.35
9,TTATTTAAAATGAAAAGTACATATTACTTTCTCACA [XGTACX_site5043],7.71 ± 0.37
10,TCTTGTTTTAATTTTTATATTATTATTTAGATATAT [CACACA_negctrl_site921],7.71 ± 0.73
11,TACTAAATGATCATATGTACACATGTTTACTTTTTA [XGTACX_site1253],7.72 ± 0.4
12,AATATATATATATATATATATATTTCAATATATAAA [XGTACX_negctrl_site187],8.23 ± 0.3
13,TTAATATATAATAAATTTTTTTTTTTTTTTTTTTTT [CACACA_negctrl_site892],9.345 ± 0.092
14,ATATATTAATATGTGTGTACTTAACCATTCATATGT [XGTACX_site7395],7.76 ± 0.62
15,TTAATATGAAAACTCTGTACCCAACCTTCTTATGGA [XGTACX_site2126],7.54 ± 0.55
16,TATATAAATATATAATGTACGTTTTAAAAATAATAT [XGTACX_site3881],7.96 ± 0.37
17,CTTGGTAGTTTTTTCTTATAATCTAATTATTAATAA [CACACA_negctrl_site153],7.78 ± 0.52
18,TTAACCACTAAAAGTACACACATATATACCTATATA [CACACA_site6026],8.06 ± 0.32
19,TTTTAATAATATGGATGTACATAAAAATAAATAAAT [XGTACX_site7937],8.21 ± 0.42
20,ATATAATAAATGTAGGTGCATAAAAATATTTTGTTA [GTGCAC_site9780],11 ± 0.45
21,TAGTATTATTTTTTTTGTACATATAAATGTAAAATA [XGTACX_site5282],7.72 ± 0.34
22,AAAACATAAATACATACACACATAATATATATTAAG [CACACA_site4239],7.66 ± 0.65

row,Sequence,gcPBM binding intensity (ln)
1,TTTTTTTAAAATATGAGTACATAATATTGTAAAAAT [XGTACX_site6536],7.78 ± 0.51
2,AAAGGATATATCCAGAGTACATATTCTGTGTAATAC [XGTACX_site1547],7.66 ± 0.53
3,ATAATTGTTTCTTTCTCCTTTTTATTTCATTTTAAA [CACACA_negctrl_site964],7.93 ± 0.59
4,CACAAAAAAAATTATACACACACACCCATATATATA [CACACA_site8255],8.37 ± 0.68
5,TATTCATCACTTTTTTGTACTTATGGATAAAATTTT [XGTACX_site3349],7.92 ± 0.45
6,TGTCTTATTTATATTACACACTATATGAAAAAATAT [CACACA_site6807],8.02 ± 0.46
7,GAAAAAGATGCGCATACACACAGATGAATAACAAAA [CACACA_site1628],8.03 ± 0.95
8,ATATATATATATATATGTACATAATTAATAGCATAT [XGTACX_site1428],9.2 ± 0.59
9,TATATAATAAGAAAATATGTGCGTAGTTCAGCAAAA [XGTACX_negctrl_site304],8.26 ± 0.74
10,AAAATAAGAAAACAAATGCACACCATTTATATAGAT [CACACA_site1055],9.23 ± 0.042
11,GAAAAATATATTCTGGTGCATGAATAAAATCATAAA,9.47 ± 0.19
12,AATTGGATAAACCAATTGGATTATAATACGATATAT [CACACA_negctrl_site275],7.46 ± 0.61
13,ATATACAATACAAAAACACACACAAAAAAAGAAAAG [CACACA_site8668],7.81 ± 0.38
14,ATAGTATCTGGTAGCTGTACGAGTCGTAGAGTCTAA [XGTACX_site2539],7.62 ± 0.52
15,ATGTATATTTTTAAAAGTACAGAATTTTCATATGAA [XGTACX_site5754],7.76 ± 0.35
16,TATTTATTTATGTACGCACACAGTTGATATTAATTC [CACACA_site2754],8.37 ± 0.3
17,GTGTAATATGAAATGTGTACACACGCACACACAAAA [XGTACX_site6180],8.32 ± 0.65
18,TAAAATATTTTTTGTAGTACCTTAATATTTTTGAAG [XGTACX_site3048],7.71 ± 0.29
19,TAAATATAATCTAAATGTACATGACATAATTTTTTT [XGTACX_site2856],7.39 ± 0.54
20,TTTCAAAAATGAGTTACACACACACCGATATATATA [CACACA_site5263],8.1 ± 0.7
21,AATAAATACTAAATGGTGCAAAATTTTTTAACACTG,10.8 ± 0.42
22,TATATATATTATAGATGTACTTTCATATATATGTTT [XGTACX_site8189],8.04 ± 0.48

row,Sequence,gcPBM binding intensity (ln)
1,AGCCACCATATTTACACACACATCAAAATGTATTAA [CACACA_site1816],8.21 ± 0.47
2,TCAATTAGACGAAAATGTACATATGTATATATTTTT [XGTACX_site5027],7.51 ± 0.57
3,GATATATTTTATATATGTACATACAAGGGTAAATAT [XGTACX_site1202],8.18 ± 0.42
4,AAAATAAACTATAGTACACACTTATTATTATGAAAT [CACACA_site5488],7.92 ± 0.3
5,AAAATATGTAGCTACACACACATAAACAAAATAACA [CACACA_site1007],7.86 ± 0.63
6,ATTTTATAAAGGAAGTGTACTAATAAATTCAAATTA [XGTACX_site3922],7.92 ± 0.4
7,AAAAAAGAATTGTGCACACACAAAAAATGTTCATAA [CACACA_site1103],10.4 ± 0.3
8,TCGATGTTGGTAGGATGTACGGTACCGGTAGTATTT [XGTACX_site4214],7.86 ± 0.68
9,AAGAAAAAATATACTTCACACATTTAATATATAATT [CACACA_site4919],7.72 ± 0.42
10,AAAAAAAAAAAAAAATGTACAAATATATACATATAT [XGTACX_site935],8.06 ± 0.28
11,ATATAATTATAAAATAAACACACATATATATTTATA [CACACA_site8039],7.7 ± 0.43
12,TAATGTTACACAAACTTTTCATTCTTTTTAATAAAT [TGCATGCA_negctrl_site331],7.53 ± 0.59
13,ATATATATATATATATGTACATAGAGAAGTATCTTT [XGTACX_site4737],9.44 ± 0.69
14,TTATTTATTTATAATTGTACATTGCAAATGAATTTA [XGTACX_site4083],7.69 ± 0.52
15,AACATTTTAAATTATACACACATTTTGAATATATAT [CACACA_site3470],7.78 ± 0.53
16,TATACACCCAGACACACACACACACCCAAAAAAAAA [CACACA_site497],8.51 ± 0.42
17,TGTTGTTGTAATTATTGTACGTTATGCGATTATTAT [XGTACX_site7005],7.91 ± 0.46
18,AAAAAAAAAAAAAAAAGTACTCTATAAGTAACATTT [XGTACX_site6973],8.52 ± 0.5
19,ATTTTTTTGTTATTGTTGAAAAGATGGTTCTTTTTT [CACACA_negctrl_site1346],7.56 ± 0.62
20,AATTTCTTATTTTGTACACACAATAAATATTCACAT [CACACA_site1612],8.09 ± 0.59
21,AAGTTAGGATAGATCCAATAATTTTTAGTTTCTCTT [GTGCAC_negctrl_site272],7.14 ± 0.71
22,ATGAACATATTTTTTTGTACTTATGAAAATATGTTA [XGTACX_site5996],7.62 ± 0.46

row,Sequence,gcPBM binding intensity (ln)
1,TAGTAGTTATCATTAACATGCAATAATATTATTTAA [TGCATGCA_site178],7.66 ± 0.55
2,AAAATAAATAAATACACACACACGAATATTTATATA [CACACA_site6892],7.7 ± 0.4
3,ATTATTTCAATTTTTTTTGTTTTTAAAAAAAAAAAT [CACACA_negctrl_site1387],7.63 ± 0.32
4,ATTATAAAAATATCGTGTACATATTTTTTAAAATAA [XGTACX_site5072],7.93 ± 0.3
5,AAAAAAAAAAAAAAAAGTACACATCATTTTATGAAA [XGTACX_site1402],8.83 ± 0.41
6,GAAAACAAAATGGTAACACACAAATGTAAATAGTAT [CACACA_site2113],7.97 ± 0.88
7,TATATATAGAAACACACACACATATATATATATTTT [CACACA_site2540],7.74 ± 0.46
8,TATATATTATAAAATAGTACACAGAATTTAAATATA [XGTACX_site100],7.86 ± 0.48
9,TCTTTTAAACAGTACACACACACATATATATATATA [CACACA_site924],9.57 ± 0.11
10,AATATTTTTTTATAAACACACATATAAATAAATATA [CACACA_site7622],7.66 ± 0.57
11,TTGTTGATTGTTATTTATCATTAGATGTAAAATATG [CACACA_negctrl_site927],7.55 ± 0.38
12,GGGCATATAATATAAAGTACAGGACTATAAAAATAT [XGTACX_site4481],7.93 ± 0.33
13,TATTATATGTATTGCACACCTTCAACAACTACTTCT [CACACA_site655],10.3 ± 0.41
14,ATATCTATAATAAACACACACATATACCTATAGGTA [CACACA_site7596],7.77 ± 0.65
15,ATTGTGCACTTATATGCACACATTTTAGTTTTTTTT [CACACA_site2028],11.4 ± 0.69
16,TTTATTTATCTGAACACATGCAGACAAATAACATAT [TGCATGCA_site929],7.75 ± 0.66
17,TATCACATATTATGATGTACAAGGATTCTGACTAAT [XGTACX_site1196],7.58 ± 0.38
18,CATAAACTTTATAACACACACTTATAAATATAAATA [CACACA_site6646],7.89 ± 0.35
19,ATTATATATAAACACACACACATGCATGCACATATA [CACACA_site4237],8.93 ± 0.59
20,GTTATAAAATATGGCACACAAAATGTAAGTAAATGA [CACACA_site1458],8.73 ± 0.18
21,ATATATTTTGTTATGGTGCGTAAGAAATATATTCTT [GTGCAC_site9825],10.3 ± 0.47
22,GATCTTTAAATTTATTGTACATAAATGTATATGTTA [XGTACX_site1107],7.81 ± 0.49
